Out of some 110,000 compounds screened, about 230 (0.21%) showed an effect of 50% or more. The list shows a part of the results.
biological target: DPAP1 (Plasmodium falciparum, UniProt Q8IIJ9); assay: primary screen, percent inhibition; read by cleavage of a fluorogenic dipeptide substrate; higher = more effect of the substance; set-up: species or system P. falciparum D10 trophozoite lysates; single well
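Further: 30 min substrate incubation versus DMSO and 10 µM JCP410 controls.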

Sequence of DPAP1 (Q8IIJ9 whole entry, looked up): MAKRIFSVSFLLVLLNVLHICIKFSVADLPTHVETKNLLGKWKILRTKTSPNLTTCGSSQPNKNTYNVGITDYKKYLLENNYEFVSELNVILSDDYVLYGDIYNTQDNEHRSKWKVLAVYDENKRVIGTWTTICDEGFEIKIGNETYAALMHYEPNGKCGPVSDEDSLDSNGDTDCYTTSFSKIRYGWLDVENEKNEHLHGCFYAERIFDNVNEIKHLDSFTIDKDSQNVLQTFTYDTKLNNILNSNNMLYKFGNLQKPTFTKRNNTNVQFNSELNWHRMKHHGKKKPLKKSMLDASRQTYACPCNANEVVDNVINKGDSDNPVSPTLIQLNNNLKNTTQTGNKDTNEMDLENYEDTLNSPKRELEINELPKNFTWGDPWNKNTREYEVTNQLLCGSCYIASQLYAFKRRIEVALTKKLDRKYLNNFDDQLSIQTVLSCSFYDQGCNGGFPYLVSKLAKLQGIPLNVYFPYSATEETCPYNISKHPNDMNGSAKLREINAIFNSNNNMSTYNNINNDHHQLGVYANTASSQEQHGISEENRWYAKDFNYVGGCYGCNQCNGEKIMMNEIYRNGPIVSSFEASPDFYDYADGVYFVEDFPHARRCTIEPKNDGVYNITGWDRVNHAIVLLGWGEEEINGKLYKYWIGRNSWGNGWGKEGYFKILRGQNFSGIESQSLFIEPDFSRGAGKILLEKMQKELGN

| SMILES | % Inhibition @ 10 uM [%] |
| --- | --- |
| O=C(C1=C(O)C(=O)N(c2nc3ccccc3s2)C1c1ccccc1F)c1ccccc1 (stereo not shown) | -5.63 |
| Cc1onc(-c2ccccc2)c1C(=O)Nc1ccc2c(c1)OCO2 | -5.06 |
| C=CCOc1ccc(Cl)cc1CNc1cccc(C(=O)O)c1 | -3.43 |
| O=C(NCCc1ccccn1)c1nc(Cn2cc(Br)cn2)no1 | 2.77 |
| Cc1nn(Cc2ccc(Cl)c(Cl)c2)c(C)c1NC(=O)c1noc2c1CCCC2 | -3.12 |
| O=C(O)c1c(CNC2CCCc3ccccc32)c2ccccc2n1Cc1ccccc1 (stereo not shown) | 1.93 |
| COCCNC(=O)C1CCN(c2nnc(C)c3c(C)n(-c4ccccc4)nc23)CC1 | 0.931 |
| CC(C)CC(C(=O)NCC#N)c1cccc(-c2ccc(C(=O)N3CCN(CCO)CC3)cc2)c1 (stereo not shown) | -8.26 |
| COc1ccc(/C=C/C(=O)NC(=O)c2ccccc2O)cc1OC | 0.685 |
| COc1cccc(C2C=C(c3ccc(F)cc3)Nc3ncnn32)c1OC(F)F (stereo not shown) | -3.37 |
| COc1ccc(C(=O)C2=C(O)C(=O)N(Cc3cccnc3)C2c2cccc(Oc3ccccc3)c2)cc1 (stereo not shown) | 2.17 |
| O=C(CNS(=O)(=O)c1cccc(Cl)c1)Nc1cccc(-c2nc3ccccc3s2)c1 | 5.15 |
| COc1ccc(-c2cc(C(=O)Nc3ccc(S(N)(=O)=O)cc3)c3ccccc3n2)c(OC)c1 | 6.77 |
| O=S(=O)(c1ccc2c(c1)OCCO2)N1CCC(c2nc3ccccc3s2)CC1 | 0.635 |
| COc1cccc(CN2CCN(S(=O)(=O)c3ccc(Cl)cc3)CC2)c1OC | 1.81 |
| COc1ccc(C2C(C(=O)Nc3cc(C)on3)c3ccccc3C(=O)N2C)cc1 (stereo not shown) | 1.16 |
| Cc1ccc(CCSCC(=O)O)cn1 | -5.38 |
| O=C(NCCCc1ccccc1)C1CCN(c2nc3ccccc3n3cccc23)CC1 | -0.205 |
| COc1ccc(S(=O)(=O)N(C)C)cc1OC | -1.96 |
| CC(C)CC(C(=O)NCC#N)c1cccc(-c2cccc(OC3CCN(C(=O)OC(C)(C)C)CC3)c2)c1 (stereo not shown) | 0.079 |
| CC(C)c1ccc(OCC(=O)N(Cc2cccc(F)c2)C2CCS(=O)(=O)C2)cc1 (stereo not shown) | -4.95 |
| CC1CCCCC1NC(=O)CCS(=O)(=O)c1cccc2nonc12 (stereo not shown) | -1.2 |
| CCN(CC)S(=O)(=O)c1cccc(-c2csc(C)n2)c1 | -3.65 |
| CCOC(=O)N1CCN(c2nnc(-c3ccc(C)cc3)c3ccccc23)CC1 | 0.778 |
| C=CCNC(=O)C(=O)Nc1ccc(Cl)cc1 | 1.29 |

| SMILES | % Inhibition @ 10 uM [%] |
| --- | --- |
| CC(=O)O/N=C1\Sc2ccccc2C1=O | -2.49 |
| CCO/C(O)=C1/C(C)=Nc2ncnn2C1c1ccc(C)o1 (stereo not shown) | 0.0842 |
| N#CC1=C(N)OC2=C(C(=O)CC(c3ccccc3)C2)C1c1cccnc1 (stereo not shown) | -2.32 |
| CC(=O)Nc1ccc(S(=O)(=O)Nc2ccc(C)c(C)c2)cc1 | -4.72 |
| COc1ccc(-c2noc(CN(C(=O)c3ccc(Br)o3)C3CCCCC3)n2)cc1 | 0.486 |
| CC1=CC2=NC(=O)/C(=C\c3cccn3CCOc3ccccc3C)C(=N)N2O1 | -9.06 |
| CCC(C)NC(=O)NCc1cccn1Cc1ccccc1 (stereo not shown) | 4.13 |
| O=C1CC(c2ccc(C(F)(F)F)cc2)c2cc3c(cc2N1)OCCO3 (stereo not shown) | 2.17 |
| CC(=O)c1ccc(N2CCN(C(=O)c3ccc(Cl)c(Cl)c3)CC2)c(F)c1 | -0.279 |
| O=C(O)C1C2CCC(O2)C1C(=O)N1CCN(c2ccccn2)CC1 (stereo not shown) | 1.37 |
| Cc1c(C)n(C)c2ccc(C(=O)NC(C)CCc3ccccc3)cc12 (stereo not shown) | 0.747 |
| CCOc1ccc(CCNC(=O)Cn2nc(C)n3c(cc4cc(C)ccc43)c2=O)cc1OCC | -5.32 |
| O=C(NCCNC(=O)c1ccccn1)c1ccccn1 | 0.222 |
| Nc1c(C(=O)O)sc2nc3c(cc12)CC(c1ccccc1)CC3 (stereo not shown) | -5.31 |
| CCOC(=O)N1CCC(NC(=O)Cn2ncc3c(=O)oc4ccccc4c32)CC1 | 3.81 |
| O=C(CN1CCCC1=O)NC1(C(F)(F)F)N=C(c2ccccc2)NC1=O (stereo not shown) | 5.31 |
| COc1cccc(/C=C2/S/C(=N\c3ccc(C)cc3)N(C)C2=O)c1 | -4.24 |
| O[C@H]1CC[C@H](NC2CCc3ccccc3C2)CC1 (stereo partly shown) | -3.82 |
| O=C(Nc1cccc2cccnc12)c1ccc(Cl)c(Cl)c1 | -2.65 |
| CCC(CC)C(=O)Nc1ccc(OC)cc1 | -3.25 |
| COC(=O)c1nnn(-c2ccc(F)cc2)c1O | -2.05 |
| FC(F)(F)c1ccc(Oc2nc3ccccc3o2)cc1 | 0.873 |
| O=C(Cc1ccccc1)Nc1nn2c(-c3ccco3)nnc2s1 | 1.68 |
| CC(NC(=O)CCCc1nnc2n(C)c(=O)c3sccc3n12)C12CC3CC(CC(C3)C1)C2 (stereo not shown) | -1.59 |
| CC1(C23CC4CC(CC(C4)C2)C3)NC(=O)CS1 (stereo not shown) | 1.66 |

| SMILES | % Inhibition @ 10 uM [%] |
| --- | --- |
| COc1ccccc1/C=c1\sc2nc(-c3ccncc3)nn2c1=O | -1.52 |
| O=C(NCCSc1ccccc1)c1cncc(Br)c1 | 0.503 |
| CCCn1c(SCc2ccccc2Cl)nc2c1c(=O)[nH]c(=O)n2C | 4 |
| Cc1cc(Br)ccc1OCCCN1CCN(C)CC1 | -7.46 |
| COc1ccc(C(CC(=O)O)NC(=O)c2ccccc2)cc1 (stereo not shown) | -3.16 |
| Cc1ccc(CNC(=O)c2cc(O)nc3ccc(S(=O)(=O)N4CCC(C)CC4)cc23)cc1 | -0.519 |
| O=C1CC(c2ccc(Cl)cc2Cl)c2ccc3ccccc3c2N1 (stereo not shown) | -2.35 |
| O=[N+]([O-])c1ccc(S(=O)(=O)NCc2ccco2)cc1 | 2.05 |
| O=C1CC(c2ccccc2)CC(O)=C1/C=N/CCO (stereo not shown) | 1.58 |
| COc1ccc(/C=N/n2c(C)nnc2C)cc1Br | 9.21 |
| Cc1[nH]c2ccccc2c1CN1CCOCC1 | 4.55 |
| CCOC(=O)c1ccc(NC(=O)c2ccc(N3C(=O)c4ccccc4C3=O)cc2)cc1 | 1.96 |
| CN1CCN(CCOc2ccccc2-c2ccccc2)CC1 | -4.54 |
| N#C/C(=C\Nc1ccc(C(N)=O)cc1)c1nc(-c2ccccc2)cs1 | -5.07 |
| CCOc1ccc2nc(SCC(=O)NCc3cccc(C(F)(F)F)c3)sc2c1 | 2.03 |
| [O-][n+]1onc2ccc(Cl)cc21 | -1.6 |
| O=C1N/C(=C/c2c[nH]c3ccccc23)C(=O)N1Cc1ccccc1F | 33.2 |
| COc1ccc(CC(=O)Nc2ccc(F)cc2)cc1 | -1.86 |
| CCOC(=O)C1=C(CS(=O)(=O)c2ccccc2)NC(=O)NC1c1ccc(O)cc1 (stereo not shown) | -2.16 |
| Cc1nn(-c2ccccc2)c(-n2cccc2)c1C(=O)N1CCCCC1C (stereo not shown) | 0.137 |
| CCOC(=O)N1CCN(C(=O)c2ccc(CSc3ccc(Cl)cc3)cc2)CC1 | -2.87 |
| Cc1ccc(N(CC(=O)Nc2ccc3c(c2)OCO3)S(C)(=O)=O)c(C)c1 | -1.28 |
| O=C(CN1C(=O)c2cccnc2C1=O)c1ccccc1 | 1.63 |
| COc1ccccc1CNC(=O)C(NS(=O)(=O)c1cccc2nsnc12)c1ccccc1 (stereo not shown) | -3.23 |
| CC(C)C(c1ccc(N(C)C)cc1)c1ccc(N(C)C)cc1 | -1.62 |

| SMILES | % Inhibition @ 10 uM [%] |
| --- | --- |
| Cc1ccc(C)c(N(CC(=O)N2CCOCC2)S(C)(=O)=O)c1 | -2.22 |
| O=C(O)/C=C/C(=O)Nc1ccc(/C=C/c2ccccc2)cc1 | 2.51 |
| N#Cc1ccc(Oc2ccc(NC(=O)C3CCCCC3C(=O)O)cc2)cc1 (stereo not shown) | -3.39 |
| BrC(=C\c1ccccc1)/C=N/n1cnnc1 | 13.3 |
| O=S(=O)(CC1CC1(Cl)Cl)CC1CC1(Cl)Cl (stereo not shown) | -2.04 |
| Cc1ccc(S(=O)(=O)N2CCCCCC2)cc1C | 1.26 |
| Cc1ccc2oc(-c3ccc(NC(=O)c4ccc(C)c([N+](=O)[O-])c4)cc3)nc2c1 | 1.41 |
| CCCN(CCC)S(=O)(=O)c1cc(CN2C(=O)c3cccnc3C2=O)ccc1OC | -4.21 |
| CC(=O)c1cn(-c2nonc2N)nn1 | -5.51 |
| CC1=C(C(=O)N2CCOCC2)C(c2ccc(O)cc2)C2=C(O)CC(C)(C)CC2=N1 (stereo not shown) | -1.48 |
| COc1ccc(-c2csc(-c3cc4ccccc4oc3=O)n2)cc1 | 2.7 |
| COc1ccccc1-c1cc(C(=O)N2CCC(C)CC2)no1 | -2.65 |
| Fc1ccc(-c2c[n+](-c3ccccc3)c3n2CCCS3)cc1 | 4.99 |
| COc1ccc(-c2cn3cc(-c4cccc(Cl)c4)nc3n2C)cc1 | 0.627 |
| COc1ccc(N2C(=O)C3C4C=CC(C)(O4)C3C2=O)cc1 (stereo not shown) | 3.05 |
| COc1ccc(NS(=O)(=O)c2ccc(NC(=O)c3ccccc3Br)cc2)cc1 | -1.6 |
| COc1ccccc1C1CC2=NC(C)=C(C(=O)OCC3CCCO3)C(c3ccccc3F)C2=C(O)C1 (stereo not shown) | 2.25 |
| COc1ccc(NC(=O)/C(NC(=O)c2ccccc2)=C(\C)c2ccccc2)cc1 | 2.45 |
| COc1cc(OC)cc(-c2cc3nc(C)c(CCC(=O)NCc4cccnc4)c(C)n3n2)c1 | 1.26 |
| COc1ccc(CC(=O)Nc2c3c(nn2-c2cccc(Cl)c2)CS(=O)(=O)C3)cc1 | -4.16 |
| CCn1nc(C)c(CCNC(=O)c2cc3c(=O)n(Cc4ccco4)ccc3nc2C)c1C | -1.56 |
| Cc1nc2ccc(S(=O)(=O)NCC(=O)NCCc3ccc(Cl)cc3)cc2s1 | 2.57 |
| CCOC(=O)c1c(NC(=O)c2cccc(OC)c2)sc(C(=O)NC2CCCC2)c1C | -1.17 |
| O=c1c2cnn(-c3ccccc3)c2ncn1C/C=C/c1ccccc1 | -3.53 |
| CC(C)(C)c1ccc(C(=O)Nc2ccc(S(N)(=O)=O)cc2)cc1Br | 3.79 |
